Measurements: paper PMC12136788
Some of the results follow.

B1: chr2:70656783:70663424:-|three_prime_utr|ENSG00000075340|control|control|control (ssRNA)
RNA: GGGAGUUCUACAGUCCGACGAUCUCUCUCCUCCCCUUCCCUUCUCCCAUCUCUGUCCCUGCAAGCACAGGGCUAAGGAGGGAUAGAGUAGGACCCUGGACCACAUUCGGAAGGGGAACUUAGAGAUCACCCGACCAACCCUUCCAACAGAGGAUUGAGCAUCA
B2: chr13:32775312:32775413:+|3pUTR|ENSG00000083642|unk|total|mutant (ssRNA)
RNA: GGGAGUUCUACAGUCCGACGAUCGAAACUUGUAAAUAUCUUUUUUCUUUUUUUUAAUGUUUCUGAUUUCUGAAGUGCUUGUACCGCUUUUAUCUGCGGCUUUAAACUGACAGUACCCGACUGUUUAUUGGAUCUAUUGAUUUGCAACAGAGGAUUGAGCAUCA
B3: ENSG00000107863:be:win_6101|3pUTR|ENSG00000107863|bound_else_gene|NA|bound_elsewhere_windowed (ssRNA)
RNA: GGGAGUUCUACAGUCCGACGAUCGCAAGGUAUUUGUUGCAACUUACUACAUAGCAUAUACCCAAAAUCACUGAAGAAAAUCGCUGGCAUCAGUGUGCAGCAAAUUUGUUCUUUUGGUUUCAUCACUAACAAAAGUGCCUCAUCCAACAGAGGAUUGAGCAUCA
B4: chr12:101746137:101746238:-|3pUTR|ENSG00000111670|msi1|total|mutant (ssRNA)
RNA: GGGAGUUCUACAGUCCGACGAUCGGUCCGUAAAUUAUUGCAGGCCACCUGUGUCUUUGUCAUACAUUCUUCUUGCUGUUGUUCCGUUUGUUUUUUUUCAAACAACCCUCUAAAAAUGUAAAAACCAUGUUCCGCUUGCAGCUGCAACAGAGGAUUGAGCAUCA
B5: chr1:66363429:66363538:+|CDS|ENSG00000184588|unk|FALSE|bound_elsewhere (ssRNA)
RNA: GGGAGUUCUACAGUCCGACGAUCAGACCUCCUAAAGACAUUCAGAAUCUCAUCUGACACAUUUAUAACCUACAUGAUGACUUUAGAAGACCAUUACCAUUCUGACGUGGCAUAUCACAACAGCCUGCACGCUGCUGAUGUAGCCAACAGAGGAUUGAGCAUCA
B6: chr9:88475159:88475277:+|CDS|ENSG00000106723|unk|FALSE|bound_elsewhere (ssRNA)
RNA: GGGAGUUCUACAGUCCGACGAUCACAAGUGGAAUAUGCCAAAGAAGAUGGCUCGAAAAGGACUGGCAUGGUCAUUCAUCAAGUAGAAGCCAAGCCCUCCGUCUAUUUCAUCAAGUUUGAUGAUGAUUUCCAUAUUUAUGUCUACAACAGAGGAUUGAGCAUCA
B7: chr10:5393100:5393516:-|three_prime_utr|ENSG00000178462|control|control|control (ssRNA)
RNA: GGGAGUUCUACAGUCCGACGAUCUGGGUGCAAAUGAAUGUCAAGUUAAAAUGGCAUGUUUUCUUUUCAAGCCGUUAUAUGCCUAGUGGGUAGUUCCCCUGAUGAGCAGAAAAAUGAACUCAAAUCAGGCAAGACUCUAGGUUCCAACAGAGGAUUGAGCAUCA
B8: chr4:175632990:175633131:-|3pUTR|ENSG00000150625|msi1|FALSE|unique (ssRNA)
RNA: GGGAGUUCUACAGUCCGACGAUCGUUGACACUUUUGGCUUUUAUUUCUGGUAUUAGAGUUUGUAUUUUCACAGAGUGCUUUGUAGCAGGCAUUACAAUUAAUCUGUUUUGUACAUAAAUGUGCCAACAGCUUGAUGGUGGCGUCAACAGAGGAUUGAGCAUCA
B9: chr7:135928980:135929074:-|3pUTR|ENSG00000105887|msi1_unk|total|mutant (ssRNA)
RNA: GGGAGUUCUACAGUCCGACGAUCUAAAAACCGAAUCACCGCCAUAAGCCUGUCCGUAUCAUAUGAAGAGAGAACAGUUAUCUCCGUACCUAUGGAUUUUCUUUAUUUGCUGUUUGAAUGGAUUGACCUUGGUUAUGUGUUGAGCAACAGAGGAUUGAGCAUCA
B10: ENSG00000197746:stop:overlap|stop_codon|ENSG00000197746|stop_codon|NA|stop_codon (ssRNA)
RNA: GGGAGUUCUACAGUCCGACGAUCACACAGAGACAGCAGCCCAGUGCAAUGCUGUCGAGCAUUGCAAACGCCAUGUGUGGAACUAGGAGGAGGAAUAUUCCAUCUUGGCAGAAACCACAGCAUUGGUUUUUUUCUACUUGUGUGCAACAGAGGAUUGAGCAUCA
B11: chr10:121967677:121967791:-|CDS|ENSG00000107672|unk|FALSE|bound_elsewhere (ssRNA)
RNA: GGGAGUUCUACAGUCCGACGAUCAAAUCCGCUAGAAGCUGAAGAACUCAUCCGUGAUGAAGAUAGUCCUGAUUUUGAAUUCAUAGUCUAUGACUCCUGGAAGAUAACAGGCAGAACAGCAGAAAACACCUUUAAUAAAACCCACAACAGAGGAUUGAGCAUCA
B12: chr15:64957256:64957357:+|3pUTR|ENSG00000166839|msi1|FALSE|unique (ssRNA)
RNA: GGGAGUUCUACAGUCCGACGAUCGCUGGAAAAUUGAAACAUAAUUUCACAAUUAUUCCUUUUUCCACCUUAAAUAAUAAGAGUAGAAUACUUUCUGUGUUUUUAUCUUAUACACAUGAAUAAAUGCUAUGGCUUAUCACAGUUCAACAGAGGAUUGAGCAUCA
B13: chr16:46956602:46956663:-|3pUTR|ENSG00000069345|msi1_unk|total|mutant (ssRNA)
RNA: GGGAGUUCUACAGUCCGACGAUCGUUUGUACAAUUUGUCCUGAAGCUUUGUGUUUGGCUGCACCUGCAUAAGCUGCUACAAACCGAAUAAAGAAUUUCACCGCCUGUAUCUAUCAUUCCGAUGCAUGGAAAAAAAUGGGCUUUCAACAGAGGAUUGAGCAUCA
B14: chr9:104598459:104599413:-|CDS|ENSG00000277556|control|control|control (ssRNA)
RNA: GGGAGUUCUACAGUCCGACGAUCCUUAUAUUCAUAUUCUACAGGGUGAUGACUCCCAUGAUGAAUCCUUUAAUCUACAGUCUUAGAAACAAGGAUGUGAAGGAGGCAGUAAAACACCUACUGAGAAGAAAAAAUUUUAACAAGCAACAGAGGAUUGAGCAUCA

Target: MSI1 full-length (mouse, UniProt Q61474 1-362)
Assay: nsRBNS (natural sequence RNA bind-n-seq); RBNS binding buffer (assumed for nsRBNS): 25 mM Tris pH 7.5, 150 mM KCl, 3 mM MgCl2, 0.01% Triton X-100, 500 ug/ml BSA, 20 U/ml SUPERase-In, 4 C; UNK is unkempt and MSI1 is Musashi-1; names of the RNAs are library labels; protein concentration not given here; high values mean tight binding

Chain of UniProt Q61474 (Q61474 whole entry): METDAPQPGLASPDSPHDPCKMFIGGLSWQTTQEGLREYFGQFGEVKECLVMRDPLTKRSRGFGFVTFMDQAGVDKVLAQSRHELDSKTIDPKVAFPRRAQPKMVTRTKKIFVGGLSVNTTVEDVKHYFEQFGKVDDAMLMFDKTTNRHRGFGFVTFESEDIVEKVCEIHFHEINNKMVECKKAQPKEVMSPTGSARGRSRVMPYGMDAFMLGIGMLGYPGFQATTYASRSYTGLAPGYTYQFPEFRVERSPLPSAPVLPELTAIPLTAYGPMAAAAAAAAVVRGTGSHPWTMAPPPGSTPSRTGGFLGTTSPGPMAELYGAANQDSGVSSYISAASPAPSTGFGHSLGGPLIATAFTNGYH

Going from B1 to B2, the binding signal rises from 0.384 enrichment R to 0.557 enrichment R.

Compared with B3, B4 is lower in binding signal: 0.458 enrichment R for the first, 0.343 enrichment R for the second.

Going from B5 to B6, the binding signal falls from 0.812 enrichment R to 0.499 enrichment R.

Going from B7 to B8, the binding signal rises from 0.403 enrichment R to 1.31 enrichment R.

Going from B9 to B10, the binding signal rises from 0.274 enrichment R to 0.799 enrichment R.

Compared with B11, B12 is higher in binding signal: 0.664 enrichment R for the first, 0.709 enrichment R for the second.

First: B13
Second: B14
The binding signal of the first is lower: 0.189 enrichment R for the first, 0.534 enrichment R for the second.
